These results are taken from the supplement of paper PMC10126150.

Values marked as one replicate rest on one cluster of the flow cell; about a third of the high ones do not repeat.

The data set deals with ATP. Put plainly: switch fluorescence ratio, 500 uM ATP over buffer (Cy3 cluster intensity, sum of 5 cycles each) (fold (ratio)); higher = stronger signal-on switching upon ATP binding; sequences stand for … in TCGTCGGCAGCGTCAGATGTGTATAAGAGACAGTTTTTTTTTTTTTTTTTTTTTTTTT…TC. The settings on record: aptamer strand: ATP DNA aptamer (quencher-CACCTGGGGGAGTATTGCGGAGGAAGG + anchor), 100 nM annealed; ATP concentration: 500 uM; one replicate. In outline:
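Cy3-labelled switching-strand clusters on a modified Illumina MiSeq flow-cell were annealed to 100 nM quencher-labelled ATP aptamer and imaged first in selection buffer, then after 15 min with 500 uM ATP at 22 °C. NaOH stripping and re-annealing separated each of five buffer/ATP cycles, and clusters outside 100-1000 RFU were excluded. The fluorescence ratio sums target-cycle Cy3 intensity over buffer-cycle Cy3 intensity per cluster and averages it per switch-domain sequence.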
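Also: ATP exposure 15 min at 22 °C before imaging.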

For the sequence CGTTTGATCA, the switch fluorescence ratio came out at 0.99. As to GATAAGGCTA, the switch fluorescence ratio turned out to be 0.975. GCGTAAGTCA: the switch fluorescence ratio was 0.989. Turning to GCGCATTTAA, the switch fluorescence ratio worked out at 1.08. Turning to CGTCTGATAA, the switch fluorescence ratio was 1.03.

For the sequence CGAAATTTGC, the switch fluorescence ratio is 0.993. As to TAAGGTTGCG, the switch fluorescence ratio is 1.01. The value for TCTTGTATGT was 0.963; that for ATTCTTTTAT was 1.02; that for GCCGGGTACC was 0.978. GACGTAATGG: the switch fluorescence ratio stood at 2.77.

As to TACTGAGACT, the switch fluorescence ratio came out at 0.984. The value for TCACTGGGCC was 1.05; that for GCACGATATT was 1.09.

In the case of ATCAGAATCT, the switch fluorescence ratio turned out to be 0.999.

Regarding GTCTATGTTT, the switch fluorescence ratio worked out at 1.01. For TTTGATTTCA, the switch fluorescence ratio worked out at 1.01. Regarding AACCCCGATG, the switch fluorescence ratio worked out at 1.38. The result for CCGCTTTATG reads 1.87; that for CTGATGTTCG, 0.995; that for TGGATATGGA, 0.985. With AAGATCTAGG, the switch fluorescence ratio was 0.951. As for TTGCGTGTAT, the switch fluorescence ratio worked out at 1.01.

Take AATTTGTCTG: the switch fluorescence ratio came to 0.986.

In the case of CGCAGCAACG, the switch fluorescence ratio was determined as 2.44.

Regarding GATTCCGAT, the switch fluorescence ratio was 1.02. With CATCAATATA, the switch fluorescence ratio worked out at 1.05. Turning to CAAAGCTTCG, the switch fluorescence ratio came out at 1.31. Consider TGTGGCGCAG, for which the switch fluorescence ratio was determined as 1.01. For the sequence GTATGCCCTA, the switch fluorescence ratio worked out at 0.986. For the sequence TTATCGAAGC, the switch fluorescence ratio was determined as 1.14. With GTGAAGCGTT, the switch fluorescence ratio came out at 0.989. For GGAAAGGTAA, the switch fluorescence ratio stood at 1.07.

Take AGCTCTTAT: the switch fluorescence ratio came out at 1.04. As for TCATATTAGC, the switch fluorescence ratio turned out to be 0.914. Turning to AGGGAGCTTG, the switch fluorescence ratio came out at 0.982.

With GACATTGATA, the switch fluorescence ratio was found to be 1.02.

Consider TTTTTAGCAC, for which the switch fluorescence ratio stood at 1.37. For TGATATGACG, the switch fluorescence ratio stood at 0.982. For the sequence GGCATCTTTT, the switch fluorescence ratio came to 1.04. Turning to CAGGAGATGT, the switch fluorescence ratio worked out at 1.

In the case of TGATATACAT, the switch fluorescence ratio amounted to 1.05.

Turning to GGTGCGTTTT, the switch fluorescence ratio was 1.33. Turning to TTATTACGGC, the switch fluorescence ratio turned out to be 1.06.

Regarding ACCGGTAACT, the switch fluorescence ratio worked out at 1.

CACAGCGAAT: the switch fluorescence ratio is 1.14. ACCAGAGCGA: the switch fluorescence ratio was found to be 1.24. Turning to TGCAACAACG, the switch fluorescence ratio turned out to be 1.01. In the case of TAAACCGACC, the switch fluorescence ratio is 2.94. The result for TTTTGCTAG reads 0.984. For the sequence AAGCCGGACA, the switch fluorescence ratio was found to be 0.969. For TTATATGGCA, the switch fluorescence ratio was 1.01. Turning to ATCAGAAATA, the switch fluorescence ratio is 1.02.

As for CACGTGACCA, the switch fluorescence ratio came to 1.19. For TACGTGGGCT, the switch fluorescence ratio turned out to be 0.988. The value for CTTTACCAAC was 1.21; that for ACGAGCTCCA was 1.07; that for TTGAGGGATT was 1.04. Turning to TAGTGATATC, the switch fluorescence ratio turned out to be 1.

Take GCGACGTGCA: the switch fluorescence ratio amounted to 1.07. Turning to AATAATTTGA, the switch fluorescence ratio is 0.961.

GACCGTTCTG: the switch fluorescence ratio turned out to be 1.02. As for CAACCGTGGA, the switch fluorescence ratio stood at 1.03. The value for ACTAGCCCTA was 0.969; that for CGATCGGGCA was 1; that for CGACGATGCT was 1.17. On to GGCCCTGTTG, for which the switch fluorescence ratio is 1.02.
